# Assay results as given in paper PMC4336329 (PLoS ONE, 2015).
# In all, about 310,000 compounds went through this assay and about 14,000 (4.5%) showed an effect of 50% or more. Effects have a minus sign here. The list shows a part of the results.
# Biological target: human ether-à-go-go-related gene (hERG) potassium channel (human, UniProt Q12809)
# Test: primary screen, population patch clamp on CHO cells stably expressing hERG
# 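Note: peak tail current of the secondary pulse compared with the same well before compound.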
# Sequence of human ether-à-go-go-related gene (hERG) potassium channel (Q12809 whole entry, looked up): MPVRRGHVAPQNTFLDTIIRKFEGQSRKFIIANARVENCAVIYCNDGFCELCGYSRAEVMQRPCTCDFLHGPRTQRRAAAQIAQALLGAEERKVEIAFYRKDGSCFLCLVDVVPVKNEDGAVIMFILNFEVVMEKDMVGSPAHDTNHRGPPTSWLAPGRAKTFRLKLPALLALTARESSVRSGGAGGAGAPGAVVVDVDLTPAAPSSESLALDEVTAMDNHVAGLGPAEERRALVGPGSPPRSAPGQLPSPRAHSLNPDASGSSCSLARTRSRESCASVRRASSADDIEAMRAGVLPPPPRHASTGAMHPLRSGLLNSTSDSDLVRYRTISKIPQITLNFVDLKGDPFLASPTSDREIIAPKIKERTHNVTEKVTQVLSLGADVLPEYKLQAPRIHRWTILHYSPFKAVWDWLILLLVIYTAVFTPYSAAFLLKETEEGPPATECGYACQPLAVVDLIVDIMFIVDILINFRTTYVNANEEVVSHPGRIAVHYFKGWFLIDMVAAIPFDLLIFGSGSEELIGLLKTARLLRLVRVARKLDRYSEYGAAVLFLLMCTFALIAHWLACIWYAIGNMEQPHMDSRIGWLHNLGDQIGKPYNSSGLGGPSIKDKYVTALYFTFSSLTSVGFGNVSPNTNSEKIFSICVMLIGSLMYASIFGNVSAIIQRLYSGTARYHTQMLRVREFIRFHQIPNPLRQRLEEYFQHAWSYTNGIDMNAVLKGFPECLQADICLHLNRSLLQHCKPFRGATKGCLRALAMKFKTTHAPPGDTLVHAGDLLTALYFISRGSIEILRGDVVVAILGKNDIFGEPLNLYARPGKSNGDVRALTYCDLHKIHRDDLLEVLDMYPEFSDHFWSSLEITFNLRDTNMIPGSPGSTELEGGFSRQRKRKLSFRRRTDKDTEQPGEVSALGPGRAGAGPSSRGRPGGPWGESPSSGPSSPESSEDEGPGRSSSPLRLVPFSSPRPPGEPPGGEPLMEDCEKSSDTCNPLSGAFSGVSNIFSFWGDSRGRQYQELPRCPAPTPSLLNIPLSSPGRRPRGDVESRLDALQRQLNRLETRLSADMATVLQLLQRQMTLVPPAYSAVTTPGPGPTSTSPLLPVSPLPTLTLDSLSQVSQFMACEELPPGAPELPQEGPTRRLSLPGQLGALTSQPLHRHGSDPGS
row,SMILES,"hERG current change (%, negative = inhibition) at 10uM [%]"
1,COc1ccc(C(=O)Nn2c(SCC(=O)NCC3CCCO3)nc3ccccc3c2=O)cc1 (stereo not drawn),2.75
2,FC(F)(F)c1nnc(-c2ccccc2)nc1N1CCOCC1,-11.1
3,CCn1c(=O)c(C(=O)NNS(=O)(=O)c2ccc(C)cc2)c(O)c2ccccc21,-17.8
4,Cc1nn(-c2ccccc2)c2c1C1(C(=O)Nc3ccccc31)N1C(=N2)Sc2ccccc21 (stereo not drawn),0.952
5,Cc1cc(NC(=O)CSc2ccc3nnc(CCNS(=O)(=O)c4ccccc4)n3n2)no1,15.6
6,CCS(=O)(=O)NCc1csc(-c2ccccc2)n1,18
7,CCOc1ccc(NC(=S)NC(=O)/C=C/c2ccc(C)cc2)c([N+](=O)[O-])c1,-2.67
8,CCCC[N+](CCCC)(CCCC)CCCC.Nc1ncnc2c1ncn2[C@@H]1O[C@H](COS(=O)(=O)[O-])[C@@H](O)[C@H]1O,6.69
9,NC(=S)N/N=C/c1ccccc1,20.2
10,Cc1ccc(CC(=O)NCc2cccnc2)cc1,34.3
11,Cc1ccc(-n2c(SCC(=O)NC3CCS(=O)(=O)C3)nc3ccccc3c2=O)cc1 (stereo not drawn),12.8
12,Cc1nnc(C)n1/N=C/c1cccnc1,14.8
13,Cc1ccc(C(=O)Nc2cnc3ccccc3c2)cc1,-1.69
14,O=C(CCc1ccccc1)Nc1ccnn1C1CCN(C/C=C/c2ccccc2)CC1,-72.1
15,C=CCn1c(CCNC(=O)c2ccccc2F)nnc1SCC(=O)Nc1ccc(OC)cc1,3.94
16,CCOc1c(C)cc2[nH]c(CCC(=O)O)nc2c1C.Cl,-0.00982
17,CS(=O)(=O)N1CCc2cc(-c3csc(NC(=O)Cc4cccs4)n3)ccc21,-17
18,C/C(Cl)=C\Cn1c(NCCc2ccccc2)nc2c1c(=O)n(C)c(=O)n2C,-9.3
19,CCc1ccc(NC(=O)[C@H](C)NC(=O)C2CCN(C(=O)[C@@H](N)C(C)C)CC2)cc1.Cl,4.85
20,O=C(CSc1ccc(C(F)(F)F)cc1[N+](=O)[O-])NCCOc1ccccc1,3.64
21,O=C(CSc1nc2cc([N+](=O)[O-])ccc2n1-c1ccccc1)NCc1ccc2c(c1)OCO2,2.65
22,O=C(Cn1c(=O)[nH]c2ccccc2c1=O)N1CCN(Cc2ccc3c(c2)OCO3)CC1,0.172

row,SMILES,"hERG current change (%, negative = inhibition) at 10uM [%]"
1,CC(C)(C)c1ccc(C2CC2C(=O)N/N=C\c2ccc[nH]2)cc1 (stereo not drawn),-2.94
2,CC(C)CCNC(=O)Cn1c2c(c(-c3ccccc3Cl)cc1=O)CCC2,-30.8
3,COc1ccccc1N1C(=O)CC(Sc2nccc(C)n2)C1=O (stereo not drawn),21.9
4,COc1ccc(N2CCN(C(=O)c3ccc(NC(=O)C4=CSCCO4)cc3)CC2)cc1,-7.63
5,O=C1C2(CCC13COC(c1ccc(O)cc1)OC3)COC(c1ccc(O)cc1)OC2 (stereo not drawn),-2.43
6,Cc1ccc(C(=O)N/N=C\c2ccc[nH]2)cn1,15.8
7,CCOc1ccc(C(=O)C(C)OC(=O)c2cnc(C)cn2)cc1 (stereo not drawn),-18.6
8,COc1cc(C(=O)Nc2cc(C(F)(F)F)ccc2-n2cncn2)cc(OC)c1OC,-17.7
9,COc1ccc2c(ccc[n+]2CC(=O)c2ccccc2)c1.[Br-],3.65
10,c1csc(CNc2ncnc3ccc(-c4ccc5c(c4)OCO5)cc23)c1,12.1
11,CC(C)c1ccc(C2/C(=C(/O)c3ccc(F)cc3)C(=O)C(=O)N2CCCN2CCOCC2)cc1 (stereo not drawn),8.03
12,CN=C(Nc1ccc2c(c1)OCO2)SC1CC(=O)N(c2ccccc2)C1=O (stereo not drawn),-18
13,Cc1ccsc1C(=O)N1CCCC(C(=O)c2cc(F)ccc2F)C1 (stereo not drawn),-5.4
14,O=C(CSc1nnc(Nc2ccccc2)s1)Nc1ccc(S(=O)(=O)N2CCOCC2)cc1,9.88
15,O=C(NC1=NN(c2ccccc2)CC1)Nc1ccccc1F,-0.489
16,O=C1CC2(CCN(C(=O)c3cccc([N+](=O)[O-])c3)CC2)Oc2ccccc21,-75.7
17,COc1ccc(CCNC(=O)Cc2ccc3c(c2)OCO3)cc1OC,0.152
18,O=C(O)CCC(=O)N1CCOc2ccc(Cl)cc21,2.92
19,Cc1ccc(C)c(OC2=NS(=O)(=O)c3ccccc32)c1,23.2
20,CCCC(=O)Nc1nnc(CCN2CCCCC2)s1,-7.76
21,Cc1cc2nnc(SCC(=O)OC(C)C)n2c2ccccc12,-9.89
22,COc1ccc(CC(NC(C)=O)C(=O)NC2CCN(S(=O)(=O)c3ccc(NC(C)=O)cc3)CC2)c(OC)c1 (stereo not drawn),-8.5

row,SMILES,"hERG current change (%, negative = inhibition) at 10uM [%]"
1,COc1cccc(C(=O)NC2CCCC2)c1,16.8
2,CCn1cc(CNC(=O)c2cc(Cl)ccc2OC)c(C)n1,14.1
3,CCOCCc1nnc(NC(=O)CSc2ccccc2)s1,-17.9
4,CCN(c1ccc(NC(=O)CSc2nnc3nc(C)cc(C)n23)cc1)C(C)C,2.57
5,CCc1nc(SCc2ccccn2)[nH]c(=O)c1C,15.1
6,COc1ccc(NC(=O)C(=O)N/N=C(\C)CC(=O)Nc2cc(C)ccn2)c(OC)c1,12.3
7,CCC(=O)Oc1ccc(C(=O)Nc2ccccc2C(=O)NCC(C)C)cc1,15.6
8,COCCC(=O)N1CCc2c([nH]c3ccccc23)C1C(C)(C)C (stereo not drawn),-2.27
9,CCOc1cccc(C(=O)Nc2ccc(N3CCCC3)cc2)c1,0.251
10,CCC(C)NC(=O)c1c(N)n(/N=C/c2ccccn2)c2nc3ccccc3nc12 (stereo not drawn),-3.06
11,O=C1CC(NNC(=O)c2ccccc2)C(=O)N1 (stereo not drawn),11.5
12,C/C(=C\C(=O)C(F)(F)F)Nc1ccc(C(F)(F)F)cc1,9.59
13,N#Cc1ccc(OCC(=O)Nc2cc(S(=O)(=O)N3CCOCC3)ccc2N2CCOCC2)cc1,-28.1
14,COc1ccc(-n2c(N)c(C(=O)NCC3CCCO3)sc2=S)cc1 (stereo not drawn),-6
15,CCC(C)NCC(=O)Nc1ccc(-c2nc3cc(NC(=O)CNC(C)CC)ccc3o2)cc1 (stereo not drawn),7.01
16,CCOc1ccc(S(=O)(=O)Nc2cccnc2)cc1,11.1
17,N#Cc1ccsc1NC(=O)COC(=O)c1cc(Br)ccc1O,-22.2
18,Cc1nc2ccccc2c2c1C(=O)N(C1CCCCCCC1)C2=O,-3.86
19,O=C(NCC1CCCO1)c1cc(C(=O)c2ccc(Cl)cc2Cl)c[nH]1 (stereo not drawn),14.6
20,COCCCNC(=O)Cc1ccc(S(=O)(=O)N2CCOCC2)s1,11.4
21,CC(C)n1ncc(C(N)=O)c1N,6.4
22,CC(C)(C)SCCNC(=O)CN(c1ccccc1)S(=O)(=O)c1ccc(F)cc1,3.5

row,SMILES,"hERG current change (%, negative = inhibition) at 10uM [%]"
1,Clc1ccccc1-c1nnc2sc(CCc3ccccc3)nn12,-28.6
2,COc1cccc(COC(=O)CSCC(=O)Nc2cccc(C)c2)c1OC,4.49
3,COc1ccc(/C=N/NC(=O)c2ccc3ccccc3c2)cc1OS(=O)(=O)c1ccc(NC(C)=O)cc1,-16
4,CCOC(=O)NC(=O)C(=CNc1cccc(OC)c1)C(=O)NC(=O)OCC,17.7
5,Cc1c(N(C)S(=O)(=O)c2cc(C(=O)NCC3CCCO3)ccc2Cl)c(=O)n(-c2ccccc2)n1C (stereo not drawn),-1.16
6,O=C(NCCOc1ccccc1)C1CCC(=O)N(CCCN2CCCC2=O)C1 (stereo not drawn),4.84
7,CCN1CCC(C(N)=O)CC1,7.45
8,COc1ccc(OCCC(=O)c2ccc(OC)cc2)cc1,-3.06
9,Cc1cc(C)n(C(=O)c2ccc(NC(=O)C3COc4ccccc4O3)cc2)n1 (stereo not drawn),-20.3
10,COc1ccccc1CNC(=O)C1CCN(S(=O)(=O)c2ccc3c(c2)C(C)(C)C(=O)N3C)CC1,-5.33
11,O=C(c1cccs1)N1CCN=C1SCc1cccc(F)c1,20
12,N#Cc1ccc(NC(=O)CN2C(=O)NC3(CCCCCCC3)C2=O)cc1Cl,13.5
13,O=C(NCCN1CCN(c2ccccc2F)CC1)c1cccn2c(=O)c3ccccc3nc12,-71.5
14,O=C(Nc1cccc(NC(=O)c2ccc(Cl)cc2)n1)c1ccc(Cl)cc1,15.1
15,C=CCNC(=O)/C(C#N)=C/c1cc(Br)ccc1OC,6.26
16,O=C(CSc1nnc(-c2n[nH]c3ccccc23)n1-c1ccccc1)Nc1ccccc1Cl,0.263
17,CC(O)CCC(=O)NNC(=S)Nc1ccccc1 (stereo not drawn),16.4
18,O=C(COc1ccc(Cl)cc1Cl)NCCCN1CCOCC1,-20.5
19,C#CCNC(=O)C1=C[C@@H](c2cn(C(C)=O)c3ccccc23)C[C@@H](OCc2ccc(CO)cc2)O1,-48.7
20,Cc1ccc(C(=O)C(C)OC(=O)CCN=C2NS(=O)(=O)c3ccccc32)cc1 (stereo not drawn),6.4
21,CCOc1ccc(OCC(=O)Nc2ccc(N3CCCCC3)cc2)cc1,4.19
